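Method: 48-hour compound exposure of cells in 96-well plates, five concentrations, linear interpolation of endpoints. At the GI50, growth is halved.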 Active and inactive are the calls of the source. Rule as the data show it: active = GI50 up to about 1.1 µM and inactive = higher. Bounds are passed on as bounds.

This assay concerns NCI-H322M. The experiment in a line: NCI tumour cell line growth inhibition, 48 h.
Take `Cc1cc(C(C)(C)C)cc(CNC2CCCCC2)c1O`: the GI50 was inactive: 18.1 µM.

Take `O=C1NC(=S)NC(=O)C1=Cc1cccc2cc3ccccc3cc12`: the GI50 is inactive: 3.21 µM.

In the case of `OCc1ccc(-c2ccc(-c3ccc(CO)s3)o2)s1`, the GI50 is inactive: 9.62 µM.

On to `COc1ccc(-c2c3c(nc4nc(SCCc5ccccc5)nc(N)c24)CCCC3)cc1OC`, for which the GI50 is inactive: > 100 µM.

As to `COc1cc(C2c3cc4c(cc3OC(NCCc3ccccc3)C2C)OCO4)cc(OC)c1OC` (centres undefined), the GI50 is active: 0.486 µM.

As for `CC(=O)CC[N+](C)(C)C`, the GI50 was inactive: > 100 µM.

For `O=C(N/N=C/c1ccc2c(c1)CCC2)c1ccccc1O`, the GI50 was inactive: 21.5 µM.

Regarding `[N-]=[N+]=Nc1cccc(-c2nnc(Cl)cc2O)c1`, the GI50 was inactive: > 100 µM.

For the compound `CC1(C)CCOC(=O)C(Cl)CC1Cl` (centres undefined), the GI50 is inactive: > 100 µM.

Turning to `CC1(C)C(=O)C2(C#N)CCC1C2` (centres undefined), the GI50 is inactive: > 100 µM.

`O=C1OC(c2ccccc2)=N/C1=C/NC(Cc1ccc(O)cc1)C(=O)O` (centres undefined): the GI50 was inactive: > 100 µM.

For the compound `C=CC1(CC/C(=C\[N+](=O)[O-])c2ccc(OC)c(OC)c2)OCC(C)(C)CO1`, the GI50 is inactive: 19.7 µM.

On to `COC(=O)NN1C(C)=C(C(=O)OC)C2(CCOC2=O)C1(C)O` (centres undefined), for which the GI50 was inactive: > 100 µM.

In the case of `CCCCCCCCCCCCCB(O)O`, the GI50 was inactive: > 100 µM.

In the case of `CC1=CC(=O)/C(=C/NC(=S)NCCc2ccccc2)C(=O)O1`, the GI50 was inactive: 37.8 µM.

Regarding `O=C(CNc1ccc(Cl)cc1Cl)NC1C=Cc2ccc(S(=O)(=O)Nc3ccc(Cl)cc3Cl)cc2C1=O` (centres undefined), the GI50 is inactive: > 100 µM.

Turning to `COC(=O)C1C=CN(N(C)C)C2=C1C(=O)c1c(O)cccc1C2=O` (centres undefined), the GI50 is inactive: 1.95 µM.

With `Cc1cccc(NC(=S)Nc2cccc(Cl)c2)n1`, the GI50 was inactive: > 100 µM.

For the compound `CCC1(CC)C(=O)NN(C(=O)c2ccccc2)C1=O`, the GI50 was inactive: > 100 µM.

On to `CCc1n[nH]c(=O)n1/N=C(\C)c1ccccc1`, for which the GI50 is inactive: > 100 µM.

In the case of `COC1CC(OC2CCC3(C)C(CCC45CCC(C6=CC(=O)OC6)C(C)(CCC43)C5=O)C2)OC(C)C1O` (centres undefined), the GI50 was inactive: 44.5 µM.

In the case of `CSc1nc(NC2OC(COC(C)=O)C(OC(C)=O)C(OC(C)=O)C2OC(C)=O)c(/N=C(\C)C(C)=O)c(=O)n1C` (centres undefined), the GI50 was inactive: > 100 µM.

`Cc1cc(C)c(-n2c(-c3ccc(Br)cc3)cs/c2=N\N=C2C=C(C(C)(C)C)C(=O)C(C(C)(C)C)=C2)c(C)c1`: the GI50 was inactive: > 100 µM.

In the case of `Cc1ccc(/N=N/c2c(O)c3ccccc3[nH]c2=O)c(S(=O)(=O)N(C)C)c1`, the GI50 was inactive: > 100 µM.

For `CCOC1NC(/N=C/c2ccc(OC)cc2)=C(C#N)C1C#N` (centres undefined), the GI50 is inactive: > 100 µM.

With `COc1ccc(C(O)/C(=C/n2ccnc2)c2ccccc2)cc1OC` (centres undefined), the GI50 is inactive: > 100 µM.

On to `Cc1nn(C(=O)CC(=O)Nc2ccccc2Cl)c(C)c1/N=N/c1ccccc1Cl`, for which the GI50 is inactive: > 100 µM.

In the case of `COC(=O)C(C(=O)C(=O)Nc1ccc(C)cc1C)c1nc2ccc([N+](=O)[O-])cc2nc1O` (centres undefined), the GI50 is inactive: > 100 µM.

Turning to `COc1ccc(C23c4ccc(OC)cc4CC2(c2ccc([N+](=O)[O-])cc2)Cc2cc(OC)ccc23)cc1` (centres undefined), the GI50 is inactive: > 36.1 µM.

With `CCCCN1CN2C(=O)C(C(=O)OCC)C(=O)c3sc4nc(SC)nc1c4c32` (centres undefined), the GI50 was inactive: 13.4 µM.

For the compound `CCOC(=O)C1Cc2ccc3c4c(ccc(c24)C1)CC(C(=O)OCC)C3`, the GI50 is inactive: > 100 µM.

In the case of `CCOC(=O)/C(=C/c1ccc(C(F)(F)F)cc1)N(CC)CC`, the GI50 was inactive: 73.8 µM.

For `CC(=O)NC(C)(C)C1CCC(C)CC1` (centres undefined), the GI50 was inactive: > 100 µM.

For the compound `CCOC(=O)c1c(Br)c(-c2ccc(OC)cc2)c(Br)n1C`, the GI50 was inactive: > 10 µM.

`CSC1=NN=C(SC)NN1`: the GI50 is active: 0.178 µM.

For the compound `COc1ccc2c(c1)[n+]([O-])c(C(=O)CC(=O)C(=O)Nc1cccc(C)c1C)c(C)[n+]2[O-]`, the GI50 was inactive: > 100 µM.

For the compound `CC(C)C[S+]1C2=C(CC(C)(C)CC2=O)[N-]c2ccccc21` (centres undefined), the GI50 is inactive: 95.7 µM.

In the case of `N#CCC(=O)Nc1cccc(C(F)(F)F)c1`, the GI50 is inactive: > 100 µM.

Take `C=C1c2nc3ccccc3n2C=C(c2ccc(C)cc2)N1c1ccc(C)cc1`: the GI50 is inactive: > 100 µM.

Consider `Cc1nc2c(Cl)cc(Cl)cc2c(Cl)c1CCCl`, for which the GI50 is inactive: > 100 µM.

With `O=c1[nH]c(-c2ccccc2)nc2c1sc1nc3ccccc3n12`, the GI50 is inactive: > 100 µM.

Take `C[C@H](NC1=CC(=O)C(N[C@@H](C)[C@H](O)c2ccccc2)=CC1=O)[C@H](O)c1ccccc1`: the GI50 is inactive: > 100 µM.

Turning to `O=S(=O)([C-]([I+]c1ccccc1)S(=O)(=O)C(F)(F)C(F)(F)C(F)(F)C(F)(F)F)C(F)(F)C(F)(F)C(F)(F)C(F)(F)F`, the GI50 was inactive: 16.7 µM.

For the compound `CC(C)(C)C1CCC(=O)/C(=C/CC2CC(=O)N(c3ccccc3)C(=O)C2)C1` (centres undefined), the GI50 is inactive: 20 µM.

As for `CC1(C)SCc2nc3ccccc3n21`, the GI50 was inactive: > 100 µM.

As for `COc1ccccc1NC(=O)C1=C(C)NC(C)=C(C(=O)Nc2ccccc2OC)C1c1cccc2c1OCO2`, the GI50 was inactive: > 100 µM.

For `N#CC(C(=O)/C(=N\NC(N)=O)C(C#N)c1ccccc1)c1ccccc1` (centres undefined), the GI50 was inactive: > 100 µM.

As to `FC1(F)ON2CCc3ccccc3C2[C@H]1c1ccccc1` (some centres undefined), the GI50 is inactive: > 10 µM.

As for `O=C(Nc1c(C(=O)NC2CCCCC2)[nH]c(=O)[nH]c1=O)c1ccc(Cl)cc1`, the GI50 was inactive: > 100 µM.

Take `Cc1noc2nnn(-c3ccc(Cl)cc3)c(=O)c12`: the GI50 was inactive: 11.9 µM.

In the case of `CCOC(=O)c1c(SCCCN2CCCCC2)n(-c2ccccc2)c(=S)n(-c2ccccc2)c1=O`, the GI50 is inactive: 18.2 µM.

In the case of `CN(C)c1nc(NC23CC4CC(CC(C4)C2)C3)nc(N(C)C)n1`, the GI50 is inactive: 5.64 µM.

With `CN(C)c1ccc(-c2c(C#N)c(S)n(NS(=O)(=O)c3ccccc3)c(=O)c2C#N)cc1`, the GI50 was inactive: 66.1 µM.

On to `Cc1cc(S(=O)(=O)N=C2N(Cc3ccccc3)CCN2Cc2ccccc2)c(S)cc1Cl`, for which the GI50 was inactive: 74.3 µM.

As to `O=C1C(Nc2ccccc2)=CC2=NCCc3n[nH]c1c32`, the GI50 is inactive: 44.9 µM.

`COc1cc2c(/C=C3/C(=O)Nc4ccc(O)cc43)c(Cl)n(Cc3ccccc3)c2cc1C`: the GI50 was active: 0.938 µM.

Consider `O=C(O)CN1C(=O)c2ccc(NC(=O)C(=O)O)cc2S1(=O)=O`, for which the GI50 is inactive: > 100 µM.

Consider `C[C@@H](CC(=O)O)OC1OC(COC(=O)C(C)(C)C)C(OC(=O)C(C)(C)C)C(OC(=O)C(C)(C)C)C1OC(=O)C(C)(C)C` (some centres undefined), for which the GI50 was inactive: > 100 µM.

Turning to `CC(=O)NC(CCCCNCc1ccccc1)C(=O)NCc1ccccc1` (centres undefined), the GI50 was inactive: > 100 µM.

Consider `C=C1C(=O)OC2/C=C(\C)C(O)CC(O)C(C)(O)CC(OC(=O)/C(C)=C/C)C12` (centres undefined), for which the GI50 was inactive: 50.7 µM.

Take `CCCCCCCCCCCCCCCCNCC(O)CN` (centres undefined): the GI50 is inactive: 4.44 µM.

For `CC(N)C(C)c1ccccc1` (centres undefined), the GI50 is inactive: > 100 µM.

With `CCN(CCCl)c1ccc(NC(=O)c2cc(C(=O)NCCN(C)C)cc(C(=O)Nc3ccc(N(CC)CCCl)cc3)c2)cc1`, the GI50 is inactive: 11.9 µM.

In the case of `COC(=O)c1c(OC(C)=O)ccc2c1c1c(OC(C)=O)c3ccccc3c(OC(C)=O)c1n2Cc1ccccc1`, the GI50 was inactive: 5.78 µM.

As for `Cc1cc(Cc2c(F)c(F)c(Cc3cc(C)no3)c(F)c2F)on1`, the GI50 is inactive: > 100 µM.

Turning to `CCOC(=O)c1nc2c3c(ncn2n1)Oc1c(c(-c2ccccc2)nn1-c1ccccc1)C3c1ccc(OC)c(OC)c1` (centres undefined), the GI50 was inactive: > 100 µM.

In the case of `COC(=O)C1Cc2c([nH]c3ccccc23)C(C2CCCCC2)N1` (centres undefined), the GI50 was inactive: > 100 µM.

On to `O=C1c2ccccc2-c2ccc(/N=[N+](/[O-])c3ccc4c(c3)C(=O)c3ccccc3-4)cc21`, for which the GI50 was inactive: > 100 µM.

Consider `CCOC(=O)C(NC(=O)c1ccccc1)(Nc1ccc(Cl)cc1C(F)(F)F)C(F)(F)F` (centres undefined), for which the GI50 was inactive: 20.7 µM.

Take `Cc1nc(C(=O)O)c2ccccc2n1`: the GI50 is inactive: > 100 µM.

On to `COc1ccc2c(c1)CCN=C2Cc1cc(OC)c(OC)cc1CCCl`, for which the GI50 was inactive: 85.3 µM.

Take `O=[N+]([O-])c1ccc2c(/N=N/c3ccc4ccccc4c3O)c(O)cc(S(=O)(=O)O)c2c1`: the GI50 is inactive: 14.8 µM.

As for `O=C(O)c1cc(C(=O)C(=O)c2cc(C(=O)O)c(O)c3ccccc23)c2ccccc2c1O`, the GI50 was inactive: > 100 µM.

Take `C[C@H]1O[C@@H](C(C)(C)C)OC(=O)[C@@H]1C(OC(=O)c1ccccc1)c1cccc2ccccc12` (some centres undefined): the GI50 was inactive: > 100 µM.

Consider `COC(=O)CCC12CCC(=O)C1[C@@H](C(=O)OC)C[C@H]2C(=O)OC` (some centres undefined), for which the GI50 was inactive: > 100 µM.

For the compound `Cc1c(C(=O)/C=C/c2ccc3c(c2)OCO3)[n+]([O-])c2ccccc2[n+]1[O-]`, the GI50 is inactive: 37.3 µM.

On to `O=C(O)COc1cc(-c2ccccc2)nc2ccccc12`, for which the GI50 was inactive: 49.1 µM.

Consider `CN(C)/C=C/c1ccnc2c1C(=O)c1ccccc1C2=O`, for which the GI50 is inactive: 13.4 µM.

Turning to `OCCNc1ncnc2[nH]cnc12`, the GI50 is inactive: > 100 µM.

Turning to `NCCNCCCCCCNC(=O)c1cccc2cc3ccccc3nc12`, the GI50 is inactive: 2.94 µM.

For `c1ccc2c(c1)ccn2CCc1c[nH]c2ccccc12`, the GI50 is inactive: > 10 µM.

As for `Nc1cc(CO)cc(Nc2c3ccccc3nc3ccccc23)c1`, the GI50 was inactive: 24.4 µM.

In the case of `CC(=O)/C=C/c1ccc(C)cc1`, the GI50 was inactive: > 100 µM.

In the case of `COc1cc(OC)cc(-c2cc(=O)c3c(OC)c(OC)c(OC)c(OC)c3o2)c1`, the GI50 is inactive: 49.2 µM.

Source of the values: ChEMBL document CHEMBL1201862, “PubChem BioAssay data set” (2004).
